# Laboratory results taken from PubChem BioAssay AID651820 (National Center for Advancing Translational Sciences (NCATS), 2012).
# In all, about 340,000 compounds went through this assay and about 12,000 (3.5%) were called active. This list was built around the results that the source calls inconclusive (neither active nor inactive); the mix of calls is not that of the screen. The call rests on the fitted dose curve; in most records, active means well fitted inhibition curve with a large enough effect; inconclusive means small, poorly fitted or top-dose-only effect, or another doubt; inactive means no such curve, though single readings can be large or run the other way. No potency is given beside an inconclusive call; the fits are too rough.
# Assay: qHTS Assay for Inhibitors of Hepatitis C Virus (HCV)
# Conditions: Huh7.5.1 HCVcc-Cre (HCVcc is cell-culture hepatitis C virus) infection, luciferase reporter, 44 h; activity change, negative = inhibition: at 41.8 µM (top of the series) unless noted
# Procedure, shortened: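 1,000 cells/well; 4 h culture; + compound; + HCVcc-Cre (~0.5 moi); 44 h; luciferase substrate, RT 15 min; read 15 sec.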
# On the % scale 0 is the no-effect control and ±100 the full control effect; potency means the concentration at half of the fitted maximal effect; tags describe the fitted curve by direction and shape.
Structure (SMILES),Potency,"activity change, negative = inhibition"
COc1ccc2cc(-c3ccn[nH]3)ccc2c1,"inconclusive [inhibitor, single point]",
CC1(CCl)N([O-])C2=C(CCCC2)[N+]1=O (stereo unspecified),,inactive: 7.22%
O=C1/C(=C/c2cccc(Br)c2)SC(=S)N1CCC(=O)N(CCO)c1ccccc1,,inactive: -16.8%
CN(CC(=O)Nc1ccc(Cl)cc1)S(=O)(=O)c1cccc2cccnc12,"inconclusive [inhibitor, single point]",
CC1SCC(NC(=O)c2ccccc2Cl)CS1 (stereo unspecified),"inconclusive [inhibitor, single point]",
Cc1nn(-c2ccccc2)c(C)c1/C=N/NC(=O)CSc1nc2ccccc2c(=O)n1-c1ccccc1,"inconclusive [inhibitor, partial curve]",
CCN(CC)S(=O)(=O)c1ccc(NC(=O)Cn2c(=O)sc3ccccc32)cc1,"inconclusive [inhibitor, single point]",
COc1ccc(NC(=O)C2CCN(S(=O)(=O)c3ccc(OC)c(OC)c3)CC2)cc1,,inactive: -12.4%
COc1cc(C(C)=O)ccc1OCC(=O)N(CCC1=CCCCC1)c1c(N)n(Cc2ccccc2)c(=O)[nH]c1=O,,inactive: 16.5%
Cc1[nH]c2ccc(C(=O)O)cc2c1C,,inactive: 17.3%
Cc1cc2n(n1)C(c1sccc1C)Nc1c(C)cccc1-2 (stereo unspecified),"inconclusive [inhibitor, partial curve]",
Brc1ccc(CSc2nccn2-c2ccccc2)cc1,,inactive: -3.09%
c1ccc(CN2CCC(N=C3NN=C(c4ccc5c(c4)OCCO5)CS3)CC2)cc1,"inconclusive [inhibitor, single point]",
COc1ccc(OC)c(NC(=O)CCc2c[nH]c3ccccc23)c1,"inconclusive [inhibitor, partial curve, poor fit]",
Cn1c(=O)c2c(ncn2CC(COCc2ccccc2Cl)OCc2ccccc2Cl)n(C)c1=O (stereo unspecified),"inconclusive [inhibitor, single point]",
CCN(CC(O)Cn1c2ccccc2c2ccccc21)S(=O)(=O)c1ccc(C)cc1 (stereo unspecified),active: 3.16 µM,
O=C(N/N=C/c1cc2c(cc1Cl)OCO2)c1cc(-c2ccccc2)n[nH]1,"inconclusive [inhibitor, single point]",
Cc1cc(O)cc(O)c1C(=O)Cc1cnn(-c2ccccc2)c1,"inconclusive [inhibitor, single point]",
Cc1cc(C(=O)N/N=C/c2sc(N3CCOCC3)nc2-c2ccccc2)c(C)o1,"inconclusive [inhibitor, full curve, poor fit]",
CCCS(=O)(=O)c1cnc(C2COc3ccccc3O2)nc1N (stereo unspecified),,inactive: 4.63%
CC(C)(C)c1csc(NC(=O)c2ccccc2O)n1,active: 22.4 µM,
O=C(O)c1ccc(-c2sc(Nc3ccccc3)n[n+]2-c2ccccc2)cc1,"inconclusive [inhibitor, single point]",
CCCCOC(=S)NC(=O)c1sc2ccccc2c1Cl,,inactive: 1.02%
COc1ccc(-c2csc3ncnc(NCCCO)c23)cc1,"inconclusive [inhibitor, partial curve]",

Structure (SMILES),Potency,"activity change, negative = inhibition"
COc1cccc(CC(=O)Nc2ccc(S(=O)(=O)N3CCCCC3)cc2)c1,"inconclusive [inhibitor, single point]",
COc1ccc(OC)c(NC(=O)Cc2ccc(NC3=NC4CS(=O)(=O)CC4S3)cc2)c1 (stereo unspecified),,inactive: -1.77%
c1ccc(CN2CCN(c3nc(-c4ccccc4)nc(-n4ccnc4)n3)CC2)cc1,active: 11.2 µM,
CCOc1ccc(-c2nnc(-c3cccs3)o2)cc1,"inconclusive [inhibitor, single point]",
CC(=O)Nc1ccc(C(=O)Nc2cccc(-c3cnc4ccccc4n3)c2)cc1,"inconclusive [inhibitor, single point]",
Cc1ccc(S(=O)(=O)c2nnn3c2nc(N2CCOCC2)c2ccccc23)cc1,active: 11.2 µM,
CCOc1ccc2nc(NC(=O)C(NS(=O)(=O)c3cccs3)C(C)C)sc2c1 (stereo unspecified),"inconclusive [inhibitor, single point]",
NC1=NC(=Nc2ccccc2)c2ccccc21,,inactive: 1.49%
CCNc1nc(NC(C)C)nc(OCCOC(=O)c2ccccc2)n1,"inconclusive [inhibitor, full curve, poor fit]",
CCOC(=O)CNC(=S)N(Cc1cccs1)C1CCCCC1,,inactive: 1.3%
C=CCn1c(=S)[nH]c2nc3c(cc2c1=O)COC(C)(C)C3,"inconclusive [inhibitor, partial curve]",
O=C(Nc1ccc(N2CCOCC2)cc1)c1ccc(Cl)c(S(=O)(=O)N2CCCCC2)c1,active: 2.51 µM,
Clc1ccc(Cn2cc(/C=N/n3cnnc3)c3ccccc32)c(Cl)c1,"inconclusive [inhibitor, single point]",
CCN(CC)c1ccc(C(=O)OCC(=O)Nc2ncccn2)cc1,,inactive: -3.96%
CC(C)(C)n1ncc2c(=O)n(CC(=O)NCc3ccccc3Cl)cnc21,,inactive: 18.2%
CCCCCCCCn1ccc(=N)cc1,active: 0.891 µM,
CC(=NNC(=S)Nc1ccccc1Cl)c1ccccn1,"inconclusive [inhibitor, full curve, poor fit]",
CCCOc1ccc(C(=O)CCNc2cccc(Cl)c2)cc1,"inconclusive [inhibitor, single point]",
CCOC(=O)CC(=O)Nc1ccccc1C(=O)O,,inactive: -4.03%
COc1cc(Br)c(CC2c3cc(OC)c(OC)cc3CCN2C)cc1OC (stereo unspecified),"inconclusive [inhibitor, single point]",
Cc1ccc(-c2nnc(NCCCO)c3ccccc23)cc1,"inconclusive [inhibitor, single point]",
C=CCOn1c(C)c(C(C)=O)c2c3nonc3ccc21,"inconclusive [inhibitor, partial curve]",
CCCNC(=O)c1onc(CSc2ccc(Cl)cc2)c1C(=O)NCC1CC1,"inconclusive [inhibitor, partial curve]",
O=C(NC1CCCC1)c1ccccc1-c1nc2ccccc2[nH]1,"inconclusive [inhibitor, single point]",

Structure (SMILES),Potency,"activity change, negative = inhibition"
Cc1ccc(CNC(=O)c2sc3ccc(S(=O)(=O)N4CCCCC4)cc3c2N)cc1,active: 31.6 µM,
CCOc1cccc2sc(N(CCCN(C)C)C(=O)c3ccc(S(=O)(=O)N(CC)Cc4ccccc4)cc3)nc12,"inconclusive [inhibitor, single point]",
Cc1cccc(-c2ncc(CN3CCCC(CO)(Cc4ccccc4C)C3)cn2)c1 (stereo unspecified),"inconclusive [inhibitor, single point]",
COc1ccccc1C(=O)Nc1cccc(Oc2c(F)c(F)c(F)c(F)c2F)c1,"inconclusive [inhibitor, partial curve, poor fit]",
CCNC(=O)NC(=O)C(C)Sc1ccc2c(c1)OCCO2 (stereo unspecified),"inconclusive [inhibitor, single point]",
CC(NC(=S)NCCc1ccccc1)C(c1cccs1)N1CCN(Cc2ccccc2)CC1 (stereo unspecified),active: 7.94 µM,
O=C1SCCN1N=Cc1ccc([N+](=O)[O-])o1,active: 22.4 µM,
COc1cccc(-c2nc(CS(=O)CC(=O)NC(C)CCc3ccccc3)c(C)o2)c1 (stereo unspecified),"inconclusive [inhibitor, partial curve]",
O=[N+]([O-])c1ccc(S(=O)Cc2ccccc2)c([N+](=O)[O-])c1 (stereo unspecified),"inconclusive [inhibitor, full curve]",
CCc1ccc(OCC(=O)N2CCc3ccccc32)cc1,,inactive: -8.78%
CCOC(=O)C1=C(CSc2nc3ccccc3s2)NC(=O)NC1c1ccc(OC)cc1 (stereo unspecified),"inconclusive [inhibitor, partial curve]",
O=[N+]([O-])c1ccc(F)cc1Oc1nc(-c2cccnc2)nc2ccccc12,"inconclusive [inhibitor, single point]",
CC(C)Cc1ccc(C(=O)Nc2ccc(Cc3ccncc3)cc2)o1,"inconclusive [inhibitor, single point]",
COc1cccc(/C=N/NC(=O)C(C)Cn2cnc3ccccc32)c1 (stereo unspecified),"inconclusive [inhibitor, single point]",
O=C(c1ccccc1Br)N1N=C(c2ccccc2)CC1c1ccccc1F (stereo unspecified),"inconclusive [inhibitor, single point]",
CCCc1cc(NCCCN2CCOCC2)n2c(nc3ccccc32)c1C#N,"inconclusive [inhibitor, full curve, poor fit]",
C=CCN(c1ccccc1)S(=O)(=O)c1ccc(Cl)c(C(=O)OCC(=O)c2[nH]c(C)c(C(C)=O)c2C)c1,"inconclusive [inhibitor, full curve]",
CN(c1ccccc1)S(=O)(=O)c1cccc(NC(=O)C2=NNC(=O)CC2)c1,"inconclusive [inhibitor, single point]",
CC(C)Cc1nc2n[nH]c(N)c2c2c1COC(C)(C)C2,"inconclusive [inhibitor, single point]",
Cc1ccc(-c2csc(N3CCN(c4cc5c(cc4Cl)nc(C(C)N)n5CCCO)CC3)n2)cc1 (stereo unspecified),"inconclusive [inhibitor, single point]",
CC(C)c1csc(CN2CCC(CO)(Cc3ccccc3)CC2)n1,"inconclusive [inhibitor, single point]",
O=C(CN1C(=O)c2ccccc2S1(=O)=O)c1cccc(Br)c1,,inactive: -2.71%
CCCCn1c(O)c(C(CC)=NCc2ccc3c(c2)OCO3)c(=O)[nH]c1=O,"inconclusive [inhibitor, single point]",
